Laboratory results taken from PubChem BioAssay AID1347428 (National Center for Advancing Translational Sciences (NCATS), 2020).
About 290 (0.32%) of roughly 91,000 compounds were called active. This list was built around the results that the source calls inconclusive (neither active nor inactive); the mix of calls is not that of the screen. Calls come from the whole dose curve; as a rule, active = well fitted inhibition curve with a large enough effect; inconclusive = small, poorly fitted or top-dose-only effect; inactive = no such curve, though single readings can be large or run the other way. Potencies beside an inconclusive call are fits to weak or partial responses and may not hold up.

Target: Single-stranded DNA cytosine deaminase (Homo sapiens) (UniProt Q9GZX7)
Chain of UniProt Q9GZX7 (Q9GZX7 whole entry, looked up): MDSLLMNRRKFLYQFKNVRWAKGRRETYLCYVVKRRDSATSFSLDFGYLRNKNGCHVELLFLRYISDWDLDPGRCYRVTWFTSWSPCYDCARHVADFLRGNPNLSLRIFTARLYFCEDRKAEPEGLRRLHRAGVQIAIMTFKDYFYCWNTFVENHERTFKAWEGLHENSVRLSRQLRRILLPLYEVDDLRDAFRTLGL
Experiment: Primary qHTS assay for inhibitors of Activation Induced Cytidine Deaminase (AID): AID signal; note: nearly all actives have a fitted effect of over 25% in size
Details: AID deamination FRET fluorescence, UDG-coupled, 4 h; series mostly up to 115 µM
Potency is the fitted concentration of half-maximal effect; tags give direction and shape of the fitted curve.

| Structure (SMILES) | Potency |
| --- | --- |
| O=C(Nc1ccccc1Cl)C1Sc2nnc(-c3ccccc3)n2NC12CCCC2 (stereo not drawn) | inactive |
| N#CC1=C(N)n2ncnc2NC1c1ccccc1Cl (stereo not drawn) | inactive |
| COc1ccc(CCNc2ncnc3c2cnn3-c2cc(Cl)ccc2C)cc1 | inconclusive: 44.7 µM [inhibitor, partial curve, poor fit] |
| COc1ccc(Cn2c(SCC(=O)N(C)Cc3ccccc3)nc3ccccc32)cc1 | inconclusive: 17.8 µM [inhibitor, full curve, poor fit] |
| CC(C)(C)C1CCc2oc3ccc(NS(=O)(=O)c4ccc(C(=O)O)cc4)cc3c2C1 (stereo not drawn) | inconclusive: 70.8 µM [inhibitor, partial curve, poor fit] |
| Cc1ccc2c(=O)cc(C(=O)Nc3ccc(S(=O)(=O)Nc4ncccn4)cc3)oc2c1C | inconclusive: 89.1 µM [inhibitor, single point] |
| COc1ccc(NCc2cccn2-c2nnc(N3CCCCC3)s2)cc1OC | inactive |
| CC(C)Cc1ccc(C(C)NC(=O)C(Cc2ccccc2)NC(=O)c2ccccc2)cc1 (stereo not drawn) | inactive |
| COc1ccc(CNC(=O)C2CCC(CNS(=O)(=O)c3ccc4c(c3)CCCC(=O)N4)CC2)cc1 (stereo not drawn) | inconclusive: 79.4 µM [inhibitor, single point] |
| COc1ccc(/C=C/C(=O)Nc2nc(-c3cccs3)ns2)cc1 | inactive |
| Cc1ccc(CCNc2ncnc3onc(-c4ccc(Cl)cc4)c23)cc1 | inconclusive: 89.1 µM [inhibitor, single point] |
| Cc1ccc(Cl)cc1-n1ncc2c(N3CCN(Cc4ccccc4)CC3)ncnc21 | inconclusive: 22.4 µM [inhibitor, full curve, poor fit] |
| CN(C(=O)c1ccc(N)cc1)C1CCCCC1 | inactive |
| COc1ccc(N(Cc2cc3cccc(C)c3[nH]c2=O)C(=O)c2cccc(Cl)c2)cc1 | inconclusive: 17.8 µM [inhibitor, single point] |
| C=CC[n+]1c(C)ccc2ccc(C)cc21 | inactive |
| CCN(C(=O)Cn1nnc2sc3c(c2c1=O)CCC(C(C)(C)C)C3)c1cccc(C)c1 (stereo not drawn) | inconclusive: 14.1 µM [inhibitor, full curve] |
| Cc1nc2c(-c3ccc(F)cc3)c(C)nn2c(C)c1CCC(=O)N1CCN(c2ccccc2)CC1 | inconclusive: 25.1 µM [inhibitor, full curve, poor fit] |
| CCOc1ccc(CCNC(=O)c2cn(C)c3ccc(S(=O)(=O)N4CCCCC4)cc3c2=O)cc1OCC | inconclusive: 39.8 µM [inhibitor, single point] |
| COc1ccc(CNC(=O)c2cc3cc4cc(OC)ccc4nc3o2)cc1 | inactive |
| Cn1ncc2c(SCc3nc4ccccc4n3C(F)F)ncnc21 | inactive |
| O=C(Nc1nnc(S(=O)(=O)N2CCCc3ccccc32)s1)c1cccc(Cl)c1 | inconclusive: 25.1 µM [inhibitor, full curve, poor fit] |
| Cc1ccc(-c2nc(NC(=O)CSc3cc(C)c4ccccc4n3)ns2)cc1 | inconclusive: 100 µM [inhibitor, partial curve, poor fit] |

| Structure (SMILES) | Potency |
| --- | --- |
| Cc1ccc(C)c(N2CCN(S(=O)(=O)c3ccc4[nH]c5c(c4c3)CCCCC5)CC2)c1 | inconclusive: 17.8 µM [inhibitor, full curve, poor fit] |
| Cc1ccc(CNC(=O)C(=O)Nc2c3c(nn2-c2ccccc2)CSC3)cc1 | inconclusive: 31.6 µM [inhibitor, partial curve, poor fit] |
| COc1ccccc1C(=O)NCCn1cc(SCC(=O)Nc2ccccc2F)c2ccccc21 | inconclusive: 50.1 µM [inhibitor, partial curve, poor fit] |
| O=C(NCCn1cc(SCc2ccc(Cl)cc2)c2ccccc21)c1cccs1 | inconclusive: 70.8 µM [inhibitor, single point] |
| N#Cc1nc(-c2cccc3ccccc23)oc1NCCN1CCOCC1 | inconclusive: 79.4 µM [inhibitor, partial curve, poor fit] |
| COc1ccc(C(=O)N2c3ccccc3C(C)(c3ccc(Cl)cc3)CC2(C)C)cc1 (stereo not drawn) | inconclusive: 17.8 µM [inhibitor, partial curve, poor fit] |
| Cc1ccc(-c2onc(C)c2C)cc1S(=O)(=O)N1c2ccccc2CC1C (stereo not drawn) | inconclusive: 22.4 µM [inhibitor, full curve, poor fit] |
| COc1cc(/C=C/C(=O)c2ccccc2OC)ccc1OC(F)F | inactive |
| Cc1cccc2sc(NC(=O)c3ccc[n+]([O-])c3)nc12 | inactive |
| c1ccc2c(NC3C4CC5CC(C4)CC3C5)nc(N3CCCC3)nc2c1 (stereo not drawn) | inconclusive: 79.4 µM [inhibitor, partial curve] |
| Oc1c(C(c2ccc(Cl)cc2)N2CCC3(CC2)OCCO3)sc2nc(-c3ccco3)nn12 (stereo not drawn) | inactive |
| CCCCN(CCCC)S(=O)(=O)c1ccc2oc(C(=O)NCc3ccc(C)cc3)c(C)c2c1 | inconclusive: 50.1 µM [inhibitor, partial curve, poor fit] |
| CCOc1ccc(CCNC(c2cccc(Cl)c2)c2nnc(-c3ccccc3)o2)cc1OCC (stereo not drawn) | inconclusive: 12.6 µM [inhibitor, full curve, poor fit] |
| Nc1cc(C(=O)OCc2cccc(F)c2F)ccc1Cl | inactive |
| N=C(N)c1cccc(N)c1 | inactive |
| COc1ccc(Cl)cc1-n1c(/C=C/c2cccc3ccccc23)nc2ccccc2c1=O | inconclusive: 25.1 µM [inhibitor, full curve, poor fit] |
| COc1ccc(C(=O)Nc2ccc3nc(N4CCC(C)CC4)cc(C)c3c2)cc1 | inactive |
| COc1ccc(/C=C2\Oc3cc(OC(=O)C(C)(C)C)ccc3C2=O)c(OC)c1OC | inactive |
| Cc1ccccc1COc1ccc(C=O)cc1 | inconclusive: 79.4 µM [inhibitor, single point] |
| CCC1CCCCN1C(=O)Cn1c(=O)n(-c2ccccc2)c(=O)c2sccc21 (stereo not drawn) | inactive |
| CCCn1cc(S(=O)(=O)c2ccccc2)c(=O)c2cc(F)c(N3CCCC(C)C3)cc21 (stereo not drawn) | inconclusive: 22.4 µM [inhibitor, full curve] |
